From the supplement of paper PMC6531468
Some of the results follow. Read counts after selection give these values, which scatter widely. Each score is taken over the longer molecules that contain the sequence shown.

Test system: IMP3 KH1-4
Assay: 6-mer SELEX enrichment z-score vs GST control; IMP3 is the RNA-binding protein IGF2BP3; higher = more enriched by binding
Conditions: construct: KH1-4 (164-579); SELEX round: R4
Method: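 SELEX-seq with GST-tagged IMP3 KH1-4 (Pro164-Lys579) and an N40 RNA pool, round 4. 6-mer z-score of sequence-tag enrichment normalised to the corresponding GST SELEX round; RNA k-mers written as DNA (T for U).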

Chain of IMP3 KH1-4 (chain, as listed by the source): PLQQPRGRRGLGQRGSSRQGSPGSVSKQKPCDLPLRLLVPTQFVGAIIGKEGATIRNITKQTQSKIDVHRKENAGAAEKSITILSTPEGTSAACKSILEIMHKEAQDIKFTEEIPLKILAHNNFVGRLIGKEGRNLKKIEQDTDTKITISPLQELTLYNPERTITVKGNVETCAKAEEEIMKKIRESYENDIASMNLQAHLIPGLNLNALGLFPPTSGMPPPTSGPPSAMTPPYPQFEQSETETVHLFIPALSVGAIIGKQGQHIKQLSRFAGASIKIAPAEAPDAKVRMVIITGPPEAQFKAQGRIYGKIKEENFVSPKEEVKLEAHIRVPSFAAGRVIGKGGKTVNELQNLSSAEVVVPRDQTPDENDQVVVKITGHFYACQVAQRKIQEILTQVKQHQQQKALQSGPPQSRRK

Row | Sequence | 6-mer SELEX enrichment z-score
1 | CGAGAT | -1.03
2 | AGAAGA | 0.906
3 | TCCGGC | 0.347
4 | CGTCAT | -0.062
5 | CTCACG | -0.94
6 | TTTAGA | 0.401
7 | AACCGT | -0.875
8 | CATGTT | 0.479
9 | ATAGAA | 1.51
10 | CGCCTA | -0.519
11 | CAAACT | -0.218
12 | ATCATG | 0.94
13 | AAGAAC | -0.132
14 | AAGACT | -0.293
15 | AATTAG | 0.703
16 | GTGTGC | 0.484
17 | CGCCGA | -1.21
18 | GAAAGG | 0.165
19 | TTAAAC | 0.614
20 | GGTGGC | 0.715

Row | Sequence | 6-mer SELEX enrichment z-score
21 | TCTGAA | -0.155
22 | CCTTTA | 0.709
23 | TGATCC | -0.012
24 | GTCGGG | 0.399
25 | CGGCCG | 0.792
26 | GTCCGA | -0.985
27 | TGGACG | -0.078
28 | GACCAT | 0.182
29 | CAGATT | 0.807
30 | TTAATG | 0.925
31 | GTGTAA | -0.269
32 | CTCGGT | -0.417
33 | GAGCAA | -1.45
34 | CGGCAA | 1.83
35 | ACTAAA | 0.57
36 | GAATCA | 0.474
37 | AGTCAT | 0.616
38 | GTGTCT | -0.278
39 | TATCTG | 0.183

Test system: IMP3 RRM1-2
Assay: as above
Conditions: construct: RRM1-2 (1-163); SELEX round: R2
Method: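 SELEX-seq with GST-tagged IMP3 RRM1-2 (Met1-Asn163) and an N40 RNA pool, round 2. 6-mer enrichment z-score normalised to GST SELEX. RNA written as DNA (T = U).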

Chain of IMP3 RRM1-2 (chain, as listed by the source): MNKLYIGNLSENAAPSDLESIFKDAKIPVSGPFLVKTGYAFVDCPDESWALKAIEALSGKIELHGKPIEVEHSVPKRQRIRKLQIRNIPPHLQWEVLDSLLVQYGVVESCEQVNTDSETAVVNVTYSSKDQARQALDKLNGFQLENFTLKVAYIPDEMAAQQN

Row | Sequence | 6-mer SELEX enrichment z-score
40 | CGAGAT | -0.591
41 | AGAAGA | -1.35
42 | TCCGGC | 0.146
43 | CGTCAT | 0.508
44 | CTCACG | 0.365
45 | TTTAGA | -0.123
46 | AACCGT | -0.988
47 | CATGTT | 0.499
48 | ATAGAA | -0.77
49 | CGCCTA | -0.317
50 | CAAACT | -0.126
51 | ATCATG | 1.71
52 | AAGAAC | -1.52
53 | AAGACT | -0.945
54 | AATTAG | -0.296
55 | GTGTGC | 0.114
56 | CGCCGA | -0.709
57 | GAAAGG | -1.2
58 | TTAAAC | -0.78
59 | GGTGGC | 0.334

Row | Sequence | 6-mer SELEX enrichment z-score
60 | TCTGAA | -0.401
61 | CCTTTA | -0.157
62 | TGATCC | -0.417
63 | GTCGGG | 0.318
64 | CGGCCG | -0.067
65 | GTCCGA | -0.322
66 | TGGACG | -0.409
67 | GACCAT | 0.787
68 | CAGATT | 0.078
69 | TTAATG | -0.238
70 | GTGTAA | -0.321
71 | CTCGGT | 0.441
72 | GAGCAA | 0.071
73 | CGGCAA | 0.052
74 | ACTAAA | -0.929
75 | GAATCA | 1.29
76 | AGTCAT | 0.484
77 | GTGTCT | 0.431
78 | TATCTG | 0.183

Target: IMP3 full-length (UniProt O00425)
Assay: as above
Conditions: construct: FL IMP3 (1-579); SELEX round: R4
Method: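 SELEX-seq with GST-tagged full-length IMP3 and an N40 RNA pool, round 4. Each 6-mer is scored as an enrichment z-score of sequence tags containing it, normalised to the matching GST SELEX round. RNA written as DNA (T = U).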

Chain of UniProt O00425 (O00425 whole entry): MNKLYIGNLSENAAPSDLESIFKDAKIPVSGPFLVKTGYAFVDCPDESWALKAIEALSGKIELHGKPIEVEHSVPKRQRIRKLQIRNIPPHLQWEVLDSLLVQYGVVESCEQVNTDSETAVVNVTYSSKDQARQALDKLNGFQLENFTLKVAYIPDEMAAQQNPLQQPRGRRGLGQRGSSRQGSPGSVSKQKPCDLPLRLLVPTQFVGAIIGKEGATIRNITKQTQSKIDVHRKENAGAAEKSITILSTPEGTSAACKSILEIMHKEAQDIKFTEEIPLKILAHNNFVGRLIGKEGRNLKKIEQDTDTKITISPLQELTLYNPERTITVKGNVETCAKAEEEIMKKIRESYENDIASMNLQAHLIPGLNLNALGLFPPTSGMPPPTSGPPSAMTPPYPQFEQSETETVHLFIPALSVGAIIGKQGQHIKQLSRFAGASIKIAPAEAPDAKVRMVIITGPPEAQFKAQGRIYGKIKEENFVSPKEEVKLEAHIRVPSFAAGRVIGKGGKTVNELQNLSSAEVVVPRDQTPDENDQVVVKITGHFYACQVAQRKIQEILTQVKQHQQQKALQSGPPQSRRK

Row | Sequence | 6-mer SELEX enrichment z-score
79 | CGAGAT | -0.67
80 | AGAAGA | -0.534
81 | TCCGGC | 0.976
82 | CGTCAT | 0.719
83 | CTCACG | -0.17
84 | TTTAGA | -0.22
85 | AACCGT | -0.777
86 | CATGTT | 0.43
87 | ATAGAA | 0.137
88 | CGCCTA | -0.482
89 | CAAACT | -0.615
90 | ATCATG | 1.77
91 | AAGAAC | -1.26
92 | AAGACT | -1.03
93 | AATTAG | -0.199
94 | GTGTGC | 0.16
95 | CGCCGA | -0.355
96 | GAAAGG | -0.521
97 | TTAAAC | -0.714
98 | GGTGGC | 0.764

Row | Sequence | 6-mer SELEX enrichment z-score
99 | TCTGAA | -0.366
100 | CCTTTA | -0.206
101 | TGATCC | -0.453
102 | GTCGGG | 0.883
103 | CGGCCG | 1.43
104 | GTCCGA | -0.242
105 | TGGACG | -0.054
106 | GACCAT | 0.055
107 | CAGATT | 0.465
108 | TTAATG | -0.172
109 | GTGTAA | -0.577
110 | CTCGGT | 0.061
111 | GAGCAA | -0.159
112 | CGGCAA | 2.47
113 | ACTAAA | -1.05
114 | GAATCA | 1.06
115 | AGTCAT | 0.715
116 | GTGTCT | 0.148
117 | TATCTG | -0.016
